{"source": "PubChem BioAssay AID686978", "about": "(National Center for Advancing Translational Sciences (NCATS), 2013)", "note": "Values joined by “and” are separate entries in the source; they are usually repeats but may differ in a detail not shown here. Equal values may be shown once. Among all 420,000 compounds or so, about 64,000 (15%) were called active. The shares of active, inactive and inconclusive entries below differ from those in the screen. Calls come from the whole dose curve; as a rule, active = well fitted inhibition curve with a large enough effect; inconclusive = small, poorly fitted or top-dose-only effect; inactive = flat fitted curve, though single readings scatter. Potencies of inconclusive entries are doubtful fits and often do not repeat. % is set by controls: 0 for no effect and ±100 for the full control effect; potency is the fitted concentration of half-maximal effect; tags give direction and shape of the fitted curve.", "data": [{"experiment": "qHTS for Inhibitors of human tyrosyl-DNA phosphodiesterase 1 (TDP1): qHTS in cells in absence of CPT; note: nearly all actives have a fitted effect of over 55% in size", "conditions": "DT40 Tdp1-/- hTDP1 cells, no CPT, ATP luminescence, 48 h; activity change, negative = growth inhibition: at 46.2 µM (top of the series)", "summary_of_the_method": "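DT40 Tdp1-/-;hTDP1 cells, no CPT (DMSO vehicle only), 400 cells/well; compounds pin-transferred; ≥48 hr, 37 °C; CellTiter-Glo 30 min RT dark, luminescence read.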", "values": [{"smiles": "CCCS(=O)(=O)N1CCCC(C(=O)NCc2ccco2)C1", "note": "(configuration not stated)", "Potency": "inactive"}, {"smiles": "COc1ccc(OC)c(C(=O)c2coc3ccc(O)c(CN4CCOCC4)c23)c1", "Potency": "inconclusive: 23.1 µM [inhibitor, single point]"}, {"smiles": "Nn1c(SCC(=O)Nc2ccccc2F)nnc1-c1cccs1", "Potency": "inactive"}, {"smiles": "CCc1nc(Nc2cccc(F)c2)c2oc3ccccc3c2n1", "Potency": "inconclusive: 16.4 µM [inhibitor, single point]"}, {"smiles": "Cc1ccc(S(=O)(=O)N2CCN(CC(=O)NC3CCCc4ccccc43)CC2)c(C)c1", "note": "(configuration not stated)", "Potency": "inconclusive: 23.1 µM [inhibitor, single point]"}, {"smiles": "O=c1c2ccccc2nc(-c2ccccc2)n1Cc1ccc(Cl)cc1", "Potency": "inconclusive: 23.1 µM [inhibitor, single point]"}, {"smiles": "CCOc1ccc(C(=O)CC(NCc2cccs2)C(=O)O)cc1", "note": "(configuration not stated)", "Potency": "active: 16.4 µM"}, {"smiles": "Cc1cccc(-c2nc(CCNC(=O)Cc3ccc(F)cc3)cs2)c1", "Potency": "active: 23.1 µM"}, {"smiles": "COc1cc(/C=C2\\SC(=O)N(c3ccc(Cl)cc3)C2=O)cc([N+](=O)[O-])c1O", "Potency": "inconclusive: 6.51 µM [inhibitor, partial curve]"}, {"smiles": "CC(C)CC(=O)NC(NC(=S)Nc1sc2c(c1C#N)CCCC2)C(Cl)(Cl)Cl", "note": "(configuration not stated)", "Potency": "inconclusive: 25.9 µM [inhibitor, single point]"}, {"smiles": "CC(=O)N1CCC2(CC1)C/C(=N\\NC(=S)Nc1ccc(C)cc1)c1cc(O)ccc1O2", "Potency": "inconclusive: 16.4 µM [inhibitor, single point]"}, {"smiles": "COc1ccc(NC(=S)Nc2ccc(Oc3ccccc3)cc2)cc1", "Potency": "inconclusive: 14.6 µM [inhibitor, partial curve, poor fit]"}, {"smiles": "Nc1c(N(CCO)C(=O)C2CCCC2)c(=O)[nH]c(=O)n1Cc1ccccc1", "Potency": "inactive"}, {"smiles": "COc1ccccc1CNC(=O)Cn1c(=O)oc2cc(S(=O)(=O)N3CCC(C)CC3)ccc21", "Potency": "active: 2.91 µM"}, {"smiles": "O=C(N/N=C/c1nn(-c2ccccc2)cc1-c1ccccc1)c1ccncc1", "Potency": "inconclusive: 18.4 µM [inhibitor, single point]"}, {"smiles": "Cc1cc2oc(=O)cc(CN3CCN(Cc4ccccc4)CC3)c2cc1Cl", "Potency": "inconclusive: 23.1 µM [inhibitor, single point]"}, {"smiles": "NC(=O)c1ccc(NC(=O)CSc2nnc(-c3ccncc3)n2Cc2ccco2)cc1", "Potency": "inactive"}, {"smiles": "Cc1ccc(C2CCN(C(=S)Nc3cccc(Cl)c3)C2)cc1", "note": "(configuration not stated)", "Potency": "inconclusive: 16.4 µM [inhibitor, partial curve]"}, {"smiles": "COc1ccc(CNC(=O)C2CCN(C(=O)c3ccc(F)cc3)CC2)cc1OC", "Potency": "inactive"}, {"smiles": "COc1cccc(CN2CCNC(=O)C2CC(=O)NCCCC2CCCC2)c1OC", "note": "(configuration not stated)", "Potency": "inactive"}, {"smiles": "O=C1CS/C(=N/N=C/c2ccccc2)N1Cc1ccco1", "activity change, negative = growth inhibition": "inconclusive: -35.1% [inhibitor]"}, {"smiles": "COc1ccc(C(O)(C2CCCCC2)C(CN2CCCC2)c2ccccc2)cc1", "note": "(configuration not stated)", "Potency": "active: 18.4 µM"}, {"smiles": "Cc1nc2cncc(Br)c2n1C", "Potency": "inconclusive: 29.1 µM [inhibitor, single point]"}, {"smiles": "COc1c(C)cc(C(=O)C2CCCN(C(=O)c3cc4nc(C)cc(C)n4n3)C2)cc1C", "note": "(configuration not stated)", "Potency": "inconclusive: 29.1 µM [inhibitor, single point]"}, {"smiles": "COC(=O)c1ccccc1OCC(=O)N1CCN(c2ccc(Cl)cc2)CC1", "Potency": "inconclusive: 10.3 µM [inhibitor, partial curve]"}, {"smiles": "Cc1c(NC(=O)OCCNC(=O)Nc2ccccc2)sc(=S)n1C", "activity change, negative = growth inhibition": "inconclusive: -32.8% [inhibitor]"}, {"smiles": "CC(C)CC(C(=O)O)N1C(=O)C2C3CC(C2C1=O)C1C(c2ccccc2)c2sc(=O)[nH]c2SC31", "note": "(configuration not stated)", "Potency": "inactive"}, {"smiles": "CC1CCCN(C(=O)c2ccc(Cl)c(S(=O)(=O)N3CCCCCC3)c2)C1", "note": "(configuration not stated)", "Potency": "active: 18.4 µM"}, {"smiles": "N#CC1=C(S)N(c2ccccc2)C(c2cccs2)NC1=O", "note": "(configuration not stated)", "Potency": "inconclusive: 18.4 µM [inhibitor, partial curve]"}, {"smiles": "Cc1ccc(NCN2C(=O)C3C4C=CC(C4)C3C2=O)cc1", "note": "(configuration not stated)", "Potency": "inconclusive: 25.9 µM [inhibitor, single point]"}, {"smiles": "COc1cc(C2Nc3ccc4ncccc4c3C3=C2C(=O)CC(C)(C)C3)cc(OC)c1O", "note": "(configuration not stated)", "Potency": "inconclusive: 35.5 µM [inhibitor, single point]"}, {"smiles": "O=C(NCC(c1ccc2c(c1)OCO2)N1CCOCC1)c1ccccc1F", "note": "(configuration not stated)", "Potency": "inactive"}, {"smiles": "O=C(CC1CCCC1)Nc1ccc2c(c1)CCC2", "activity change, negative = growth inhibition": "inconclusive: -31.5% [inhibitor]"}, {"smiles": "CCc1ccc(CNC(=O)CCc2c(C)nn(-c3ccc(N4CCCCC4)nn3)c2C)cc1", "Potency": "inconclusive: 20.6 µM [inhibitor, single point]"}, {"smiles": "COc1cccc(C(O)c2nc(-c3ccccc3C)cs2)c1", "note": "(configuration not stated)", "Potency": "active: 18.4 µM"}, {"smiles": "CCc1ccc2occ(CC(=O)Nc3c(C(=O)Nc4ccc(OC)cc4)oc4ccccc34)c2c1", "Potency": "inconclusive: 16.4 µM [inhibitor, single point]"}, {"smiles": "CCOC(=O)C1=C(c2ccccc2)NC(=O)NC1c1ccc(OC)c(OC)c1", "note": "(configuration not stated)", "Potency": "inactive"}, {"smiles": "CCN(CC)CCn1c2c(c(SCC(=O)Nc3ccc4c(c3)OCCO4)nc1=O)CCC2", "Potency": "inconclusive: 13 µM [inhibitor, single point]"}, {"smiles": "Cc1cc(C)c(C#N)c(SCC(=O)Nc2cc(C)on2)n1", "Potency": "inactive"}, {"smiles": "CC1=CC(=O)Nc2ccccc2S1", "Potency": "inconclusive: 20.6 µM [inhibitor, single point]"}, {"smiles": "CCOC(=O)N1CCN(c2nc(-c3cccc(OC)c3)cc(C(F)(F)F)n2)CC1", "Potency": "active: 20.6 µM"}, {"smiles": "CCN1C(=O)CSc2ccc(C(=O)NCc3ccccc3OC)cc21", "Potency": "inconclusive: 35.5 µM [inhibitor, single point]"}, {"smiles": "Cc1ccc(S(=O)(=O)N2CCCOC2CNC(=O)C(=O)NCc2ccccn2)cc1", "note": "(configuration not stated)", "Potency": "inactive"}, {"smiles": "CNC(=S)Nc1ccc(OCc2ccccc2)cc1", "Potency": "inconclusive: 25.9 µM [inhibitor, single point]"}, {"smiles": "COC(=O)c1c(-c2ccc(C)cc2)csc1NC(=O)C1CC=CCC1C(=O)O", "note": "(configuration not stated)", "activity change, negative = growth inhibition": "inconclusive: -31.3% [inhibitor]"}, {"smiles": "Cc1cc(S(=O)(=O)NC2CCCC2)ccc1F", "Potency": "inconclusive: 10.3 µM [inhibitor, partial curve]"}, {"smiles": "O=C1C(=O)N(Cc2ccccc2)C(=O)N1CCOc1ccccc1", "Potency": "inconclusive: 23.1 µM [inhibitor, single point]"}, {"smiles": "Cc1cc(C(=O)NNc2ccc(Cl)cc2)no1", "Potency": "inconclusive: 18.4 µM [inhibitor, single point]"}, {"smiles": "O=C(Cn1c(NCCO)nc2ccccc21)c1ccc(Cl)cc1Cl", "Potency": "inconclusive: 23.1 µM [inhibitor, single point]"}, {"smiles": "CC(CC(=O)Nc1ccc2c(c1)c(=O)n(C)n2-c1ccccc1F)c1ccccc1", "note": "(configuration not stated)", "Potency": "active: 5.8 µM"}, {"smiles": "O=C(NCCc1ccccc1)C1CCN(c2nc3ccccc3o2)CC1", "Potency": "inactive"}, {"smiles": "O=C(OCc1ccccc1)N1CCC2CC1c1ccc(-c3ccc4c(c3)OCO4)cc12", "note": "(configuration not stated)", "Potency": "inconclusive: 29.1 µM [inhibitor, single point]"}, {"smiles": "CCOC(=O)c1sc(C)c2c(=O)n(Cc3ccc(Cl)cc3)c(C)nc12", "Potency": "active: 16.4 µM"}, {"smiles": "COc1ccc(COC(=O)c2ccc(S(=O)(=O)N3CCCCC3)cc2)cc1OC", "Potency": "inactive"}, {"smiles": "Cc1ccc(NC(=O)CN(C)S(=O)(=O)c2cccc3nsnc23)cc1", "Potency": "inactive"}, {"smiles": "COC(=O)C(C)(C)ONC(=O)Nc1ccc(C)cc1", "Potency": "inactive"}, {"smiles": "COc1ccc(-c2csc(CCN3N=C(C)CC3=O)n2)cc1", "Potency": "inconclusive: 29.1 µM [inhibitor, single point]"}, {"smiles": "COc1ccc(NC2=NC(=S)N(c3ccc(C)cc3)C23CCCCC3)cc1", "Potency": "inconclusive: 14.6 µM [inhibitor, partial curve]"}, {"smiles": "CCN(CC(=O)NC(C)(C)C)C(=O)c1ccccc1SCC(=O)NC1CCCCCCC1", "Potency": "inconclusive: 29.1 µM [inhibitor, single point]"}, {"smiles": "CC(=O)N1CCN(c2ccc(NC(=O)c3ccco3)cc2Cl)CC1", "Potency": "inactive"}, {"smiles": "CC(=O)c1cccc(NC(=O)c2cnn(-c3ccccc3)c2C)c1", "Potency": "inconclusive: 29.1 µM [inhibitor, single point]"}, {"smiles": "Cc1ccc2nc(Cl)c3cc(C(=O)N(C)C4CCCCC4)sc3c2c1", "Potency": "inactive"}, {"smiles": "Cc1c(Cl)cccc1NC(=O)c1nc(C)n(-c2cc(OC(C)C)c(Cl)cc2Cl)n1", "Potency": "inconclusive: 29.1 µM [inhibitor, single point]"}, {"smiles": "Cc1ccc(C(=O)NC23CC4CC(CC(C4)C2)C3)c(Cl)c1", "Potency": "inconclusive: 23.1 µM [inhibitor, single point]"}, {"smiles": "COc1ccccc1C(CC(=O)c1ccccc1)C(=O)c1ccccc1", "note": "(configuration not stated)", "Potency": "inconclusive: 29.1 µM [inhibitor, single point]"}, {"smiles": "O=[N+]([O-])c1ccc(/C=N\\N2CCN(Cc3ccccc3Cl)CC2)cc1", "Potency": "inconclusive: 20.6 µM [inhibitor, single point]"}, {"smiles": "CCOc1ccc(CCNC(=O)C2CCN(C(=O)N3CC(CC)Oc4ccc(C)cc43)CC2)cc1", "note": "(configuration not stated)", "Potency": "inconclusive: 23.1 µM [inhibitor, single point]"}, {"smiles": "CCc1ccc(CNC(=O)Cn2nc(-c3ccccc3)ccc2=O)cc1", "Potency": "inactive"}, {"smiles": "COc1cc(C2c3cc4c(cc3OC(NNC(N)=S)C2C)OCO4)cc(OC)c1OC", "note": "(configuration not stated)", "Potency": "active: 0.92 µM"}, {"smiles": "CC1CN(c2ncnc3c2cnn3-c2ccc(Cl)cc2)CC(C)O1", "note": "(configuration not stated)", "Potency": "inconclusive: 20.6 µM [inhibitor, single point]"}, {"smiles": "CN1CC2(Cc3c1ccc1ccccc31)C(=O)OC(C)(C)OC2=O", "Potency": "inactive and inconclusive: 35.5 µM [inhibitor, single point]"}, {"smiles": "C/C(=N/NC(=O)c1nnn(-c2nonc2N)c1CSc1ccc(Cl)cc1)c1ccncc1", "Potency": "inconclusive: 18.4 µM [inhibitor, single point]"}]}]}
